Laboratory results as given in PubChem BioAssay AID881 (National Center for Advancing Translational Sciences (NCATS), 2007).
Screen size: about 110,000 compounds; about 610 (0.55%) were called active. Inconclusive results, whose numbers are uncertain, are shown with a selection of clear calls. The call rests on the fitted dose curve; in most records, active means well fitted inhibition curve with a large enough effect; inconclusive means small, poorly fitted or top-dose-only effect; inactive means no such curve, though single readings can be large or run the other way. Where the call is inconclusive, the potency comes from a doubtful curve fit.

target: Polyunsaturated fatty acid lipoxygenase ALOX15B (Homo sapiens) (UniProt O15296); assay: qHTS Assay for Inhibitors of 15-hLO-2 (15-human lipoxygenase 2); conditions: purified 15hLO-2, xylenol orange hydroperoxide absorbance; activity change, negative = inhibition: at 57.1 µM (top of the series) unless noted; further: nearly all actives have a fitted effect of over 60% in size
Procedure, shortened: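 Purified human 15hLO-2 (50 nM) preincubated 15 min with compound, then 45 uM arachidonic acid for 90 min at RT in 25 mM Hepes pH 7.5, 0.01% Triton X-100. Hydroperoxide detected by Fe-xylenol orange; 573/405 nm absorbance ratio.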
On the % scale 0 is the no-effect control and ±100 the full control effect; potency means the concentration at half of the fitted maximal effect; tags describe the fitted curve by direction and shape.

UniProt O15296, sequence (O15296 whole entry, looked up): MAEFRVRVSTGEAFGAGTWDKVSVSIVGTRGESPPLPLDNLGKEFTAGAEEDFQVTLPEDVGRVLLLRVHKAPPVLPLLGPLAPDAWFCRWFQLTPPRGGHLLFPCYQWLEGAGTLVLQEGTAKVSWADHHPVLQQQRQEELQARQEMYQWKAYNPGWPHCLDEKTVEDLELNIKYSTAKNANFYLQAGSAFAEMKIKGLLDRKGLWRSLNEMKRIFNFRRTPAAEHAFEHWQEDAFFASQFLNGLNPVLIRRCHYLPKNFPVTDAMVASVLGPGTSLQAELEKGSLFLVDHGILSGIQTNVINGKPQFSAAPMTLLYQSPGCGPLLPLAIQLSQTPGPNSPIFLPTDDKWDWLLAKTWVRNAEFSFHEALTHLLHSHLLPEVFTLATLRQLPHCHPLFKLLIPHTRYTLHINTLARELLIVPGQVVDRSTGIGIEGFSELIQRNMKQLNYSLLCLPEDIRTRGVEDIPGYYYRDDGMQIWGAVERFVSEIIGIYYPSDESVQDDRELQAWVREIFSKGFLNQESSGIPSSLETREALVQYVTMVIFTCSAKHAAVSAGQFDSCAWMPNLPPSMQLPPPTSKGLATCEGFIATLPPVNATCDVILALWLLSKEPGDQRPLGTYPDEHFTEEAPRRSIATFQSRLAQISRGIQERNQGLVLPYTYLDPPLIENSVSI

| Structure (SMILES) | Potency | activity change, negative = inhibition |
| --- | --- | --- |
| CC/C(=N/Nc1ccccc1)c1cnnc(SC)n1 | inconclusive: 7.94 µM [inhibitor, full curve] | – |
| Cc1cc(Cl)ccc1NC(=S)NCc1cccs1 | inconclusive: 31.6 µM [inhibitor, single point] | – |
| COc1ccccc1N1CCN(/N=C/C=C\c2ccco2)CC1 | inconclusive: 15.8 µM [inhibitor, partial curve] | – |
| Cc1cc(C)cc(NC(=S)NC(=O)CCN2C(=O)c3ccccc3C2=O)c1 | inconclusive: 12.6 µM [inhibitor, partial curve] | – |
| Fc1cccc(CSc2nc3ncccc3[nH]2)c1 | inactive | – |
| COC(=O)c1ccc(CS(=O)(=O)c2ccccc2C)o1 | inconclusive: 10 µM [inhibitor, partial curve] | – |
| COC(=O)CCCC(=O)O | – | inactive: 11.4% [at 11.4 µM] |
| CCc1cccc(NC(=O)Nc2cccs2)c1 | inactive | – |
| COc1ccc(CCNS(=O)(=O)c2ccc(S(=O)(=O)N3CCCC3)cc2)cc1OC | inactive | – |
| O=c1c(C(c2ccccc2)c2c(O)sc3ccccc3c2=O)c(O)sc2ccccc12 | inconclusive: 39.8 µM [inhibitor, single point] | – |
| Nc1ccc(N2CCCCC2)cc1N1CCCCC1 | inconclusive: 1.26 µM [inhibitor, full curve] | – |
| O=Cc1cccc(Br)c1 | inactive | – |
| COc1ccc2c3c(cccc13)N(C)N=C2C | active: 2.51 µM | – |
| O=C(Cn1c(-c2ccccc2)noc1=O)Nc1ccc(N2CCCCCC2)cc1 | inactive | – |
| C=C(C)C1Cc2nc(N)nc(C)c2C1 (configuration not stated) | inconclusive: 0.251 µM [inhibitor, full curve] | – |
| CCOC(=O)c1sc2nc(-c3ccco3)c3c(c2c1N)CC(C)(C)OC3 | inconclusive: 6.31 µM [inhibitor, full curve] | – |
| Oc1ccc(-c2[nH]nc(-c3ccccc3)c2-c2nc3ccccc3[nH]2)cc1 | inactive | – |
| Cc1ccc(N(C(=O)CNC(=O)c2ccco2)C(C(=O)NC2CCCC2)c2cccnc2)cc1C (configuration not stated) | inactive | – |
| C=CCn1c(SCC(=O)Nc2ccc3c(c2)OCO3)nnc1-c1cc(Br)ccc1O | inconclusive: 25.1 µM [inhibitor, partial curve] | – |
| COc1ccc(C2Nc3ccccc3C(=O)N2Cc2ccco2)cc1CN1C(=O)c2ccccc2C1=O (configuration not stated) | inconclusive: 20 µM [inhibitor, partial curve] | – |
| CCCCCC(=O)N(O)C1CC(=O)N(c2ccccc2)C1=O (configuration not stated) | inactive | – |
| Cc1ccc(OCCn2cc(C(=S)N3CCCC3)c3ccccc32)cc1C | inconclusive: 25.1 µM [inhibitor, partial curve] | – |
